The other results are listed elsewhere or left out. At the low end of the ranking, values are background and their order means little.
Target: SIX1 homeodomain (reference allele) (UniProt Q15475)
Assay: universal protein binding microarray
Settings: Universal all-10-mer PBM (8x60K, AMADID 030236), 300 nM GST-tagged protein, Alexa Fluor 488 anti-GST; buffer, salt, pH and temperature not stated; high values mean tight binding; most listed sequences are background and not binding sites; double strand, one strand shown

**Q.** GGTGTGCA was tested. Which binding signal did it give?
**A.** 0.129 E-score

**Q.** How did the binding signal turn out when GCTTTCCA was run?
**A.** -0.303 E-score

**Q.** ACGATTCA was tested. Which binding signal did it give?
**A.** 0.0697 E-score

**Q.** Which binding signal does the source give for CACAGTCA here?
**A.** -0.116 E-score

**Q.** With GAATAACC as the sequence, how does the binding signal read?
**A.** -0.129 E-score

**Q.** For CCTCGAAG, which binding signal is on record?
**A.** -0.095 E-score

**Q.** How did the binding signal turn out when CTGGGTGC was run?
**A.** -0.00704 E-score

**Q.** With CATGCAAA as the sequence, how does the binding signal read?
**A.** -0.177 E-score

**Q.** How did the binding signal turn out when AGGATAGC was run?
**A.** 0.229 E-score

**Q.** With AACGATCT as the sequence, how does the binding signal read?
**A.** 0.176 E-score

**Q.** How did the binding signal turn out when AGGGGTGA was run?
**A.** 0.0138 E-score

**Q.** How did the binding signal turn out when TACCTTGA was run?
**A.** 0.139 E-score

**Q.** How did the binding signal turn out when CACTAGCC was run?
**A.** 0.127 E-score

**Q.** For AGGGCCCT, which binding signal is on record?
**A.** -0.185 E-score

**Q.** GCTTGTAA was tested. Which binding signal did it give?
**A.** -0.268 E-score

**Q.** ATATAAGA was tested. Which binding signal did it give?
**A.** 0.303 E-score

**Q.** ACACCGAA was tested. Which binding signal did it give?
**A.** 0.253 E-score

**Q.** For AATCAGCC, which binding signal is on record?
**A.** -0.0819 E-score

**Q.** How did the binding signal turn out when ACTGGGTA was run?
**A.** 0.163 E-score

**Q.** GGATTTTA was tested. Which binding signal did it give?
**A.** 0.0603 E-score

**Q.** With ACGCGTGG as the sequence, how does the binding signal read?
**A.** 0.0293 E-score

**Q.** With CCACGATC as the sequence, how does the binding signal read?
**A.** 0.195 E-score

**Q.** For ACCCTGGA, which binding signal is on record?
**A.** -0.0147 E-score

**Q.** Which binding signal does the source give for CCTACGTC here?
**A.** -0.0266 E-score

**Q.** With CTCGCAAG as the sequence, how does the binding signal read?
**A.** -0.19 E-score

**Q.** For CGCTCCTA, which binding signal is on record?
**A.** -0.0814 E-score

**Q.** Which binding signal does the source give for ACTCGAGA here?
**A.** 0.155 E-score

**Q.** AGGGGGTC was tested. Which binding signal did it give?
**A.** -0.0137 E-score

**Q.** AAAACGCT was tested. Which binding signal did it give?
**A.** -0.245 E-score

**Q.** For AGTACGGA, which binding signal is on record?
**A.** -0.0761 E-score

**Q.** ATCTCTGG was tested. Which binding signal did it give?
**A.** 0.219 E-score

**Q.** With CCTCCTGA as the sequence, how does the binding signal read?
**A.** 0.0769 E-score

**Q.** For AACCAGGT, which binding signal is on record?
**A.** -0.0907 E-score

**Q.** How did the binding signal turn out when TCAGAAAA was run?
**A.** -0.142 E-score

**Q.** How did the binding signal turn out when AGGGGAGC was run?
**A.** -0.0543 E-score

**Q.** How did the binding signal turn out when AAGGTTGG was run?
**A.** -0.18 E-score

**Q.** How did the binding signal turn out when GGTATTAC was run?
**A.** 0.385 E-score

**Q.** For ATGCTGTG, which binding signal is on record?
**A.** -0.0262 E-score

**Q.** How did the binding signal turn out when AGACACCT was run?
**A.** 0.287 E-score

**Q.** AGGGGTAG was tested. Which binding signal did it give?
**A.** 0.214 E-score

**Q.** Which binding signal does the source give for CACCAACA here?
**A.** -0.0418 E-score

**Q.** With TAAACTGA as the sequence, how does the binding signal read?
**A.** 0.158 E-score

**Q.** For ATGGAGGG, which binding signal is on record?
**A.** 0.0583 E-score

**Q.** How did the binding signal turn out when TATACGGA was run?
**A.** 0.28 E-score

**Q.** How did the binding signal turn out when TAACTTGA was run?
**A.** 0.105 E-score

**Q.** With CCCGCCAC as the sequence, how does the binding signal read?
**A.** 0.0338 E-score

**Q.** GAATCTAA was tested. Which binding signal did it give?
**A.** -0.15 E-score

**Q.** How did the binding signal turn out when ATGGTCAG was run?
**A.** 0.00983 E-score

**Q.** For TAAAAACA, which binding signal is on record?
**A.** -0.114 E-score

**Q.** Which binding signal does the source give for AGGAGGCC here?
**A.** -0.195 E-score

**Q.** Which binding signal does the source give for AGTACAAG here?
**A.** -0.0699 E-score

**Q.** Which binding signal does the source give for CCCAGTAG here?
**A.** -0.0555 E-score

**Q.** Which binding signal does the source give for ACGTGTTG here?
**A.** -0.0112 E-score

**Q.** Which binding signal does the source give for CATTGTGG here?
**A.** -0.1 E-score

**Q.** ATTGGCGG was tested. Which binding signal did it give?
**A.** -0.0821 E-score

**Q.** Which binding signal does the source give for AACTTCTA here?
**A.** -0.309 E-score

**Q.** With CGCACCAG as the sequence, how does the binding signal read?
**A.** -0.0664 E-score

**Q.** ACCGCCGA was tested. Which binding signal did it give?
**A.** 0.0208 E-score

**Q.** Which binding signal does the source give for GTCCCACA here?
**A.** -0.00498 E-score

**Q.** Which binding signal does the source give for AGCCCCCA here?
**A.** -0.186 E-score

**Q.** Which binding signal does the source give for CGCATTAA here?
**A.** -0.00684 E-score

**Q.** How did the binding signal turn out when CATCTCTC was run?
**A.** -0.00136 E-score

**Q.** CGATGACC was tested. Which binding signal did it give?
**A.** 0.0306 E-score

**Q.** With ATATCAGA as the sequence, how does the binding signal read?
**A.** 0.408 E-score

**Q.** CTCACAAA was tested. Which binding signal did it give?
**A.** 0.0269 E-score

**Q.** How did the binding signal turn out when CCTGTAAA was run?
**A.** -0.204 E-score

**Q.** TCAGTGGA was tested. Which binding signal did it give?
**A.** 0.0576 E-score

**Q.** Which binding signal does the source give for AGGTCGGA here?
**A.** 0.0758 E-score

**Q.** Which binding signal does the source give for TAAGGCCA here?
**A.** -0.27 E-score

**Q.** How did the binding signal turn out when GGTACCAC was run?
**A.** -0.107 E-score

**Q.** How did the binding signal turn out when ACAACGAG was run?
**A.** -0.198 E-score

**Q.** For ATAAGTCG, which binding signal is on record?
**A.** -0.0429 E-score

**Q.** Which binding signal does the source give for GGATTCTA here?
**A.** 0.0841 E-score

**Q.** How did the binding signal turn out when AGTGAAAG was run?
**A.** -0.129 E-score

**Q.** With CTAGCTAA as the sequence, how does the binding signal read?
**A.** -0.0344 E-score

**Q.** How did the binding signal turn out when GGGTGGTA was run?
**A.** 0.088 E-score

**Q.** For AGATACAC, which binding signal is on record?
**A.** 0.38 E-score

**Q.** How did the binding signal turn out when GCAAGCCC was run?
**A.** -0.266 E-score

**Q.** With GCCCACTA as the sequence, how does the binding signal read?
**A.** -0.224 E-score

**Q.** With AAGTCATC as the sequence, how does the binding signal read?
**A.** -0.15 E-score

**Q.** Which binding signal does the source give for GGTTTTCA here?
**A.** -0.161 E-score

**Q.** How did the binding signal turn out when AGCTAACG was run?
**A.** -0.207 E-score

**Q.** How did the binding signal turn out when GCCCACGA was run?
**A.** -0.204 E-score

**Q.** Which binding signal does the source give for CCCGGATA here?
**A.** 0.424 E-score

**Q.** Which binding signal does the source give for AGCCTGCG here?
**A.** -0.0767 E-score

**Q.** With AGGTAAAA as the sequence, how does the binding signal read?
**A.** -0.253 E-score

**Q.** For CGCAGTGC, which binding signal is on record?
**A.** -0.284 E-score

**Q.** With GGAGAACA as the sequence, how does the binding signal read?
**A.** -0.095 E-score

**Q.** With AATCCCCG as the sequence, how does the binding signal read?
**A.** 0.212 E-score

**Q.** How did the binding signal turn out when ACCCTGAA was run?
**A.** 0.124 E-score

**Q.** CCTAGTGA was tested. Which binding signal did it give?
**A.** 0.113 E-score

**Q.** For AGAGTCAC, which binding signal is on record?
**A.** -0.177 E-score

**Q.** With AGCTCGAA as the sequence, how does the binding signal read?
**A.** -0.288 E-score

**Q.** For CTTCGTCC, which binding signal is on record?
**A.** -0.136 E-score

**Q.** How did the binding signal turn out when GGGAGGGA was run?
**A.** 0.0773 E-score

**Q.** How did the binding signal turn out when CCAACTCC was run?
**A.** -0.0817 E-score

**Q.** With TACCCCTA as the sequence, how does the binding signal read?
**A.** 0.34 E-score

**Q.** With CGTATGGA as the sequence, how does the binding signal read?
**A.** 0.0654 E-score

**Q.** For AGGCTCAA, which binding signal is on record?
**A.** -0.165 E-score

**Q.** For CCAAGTCG, which binding signal is on record?
**A.** -0.0485 E-score

**Q.** How did the binding signal turn out when ATCCCAAA was run?
**A.** 0.145 E-score

**Q.** Which binding signal does the source give for ATGCACGA here?
**A.** 0.136 E-score

**Q.** TAATGCAA was tested. Which binding signal did it give?
**A.** -0.107 E-score

**Q.** How did the binding signal turn out when GTCTTAAC was run?
**A.** -0.0945 E-score

**Q.** How did the binding signal turn out when CCCGCGCA was run?
**A.** 0.0663 E-score

**Q.** Which binding signal does the source give for ATAGCACG here?
**A.** 0.0367 E-score

**Q.** Which binding signal does the source give for CCTGAACC here?
**A.** -0.000955 E-score

**Q.** Which binding signal does the source give for GAGGGCAC here?
**A.** -0.245 E-score

**Q.** Which binding signal does the source give for CGAGTGAG here?
**A.** 0.162 E-score

**Q.** How did the binding signal turn out when CCCACTTC was run?
**A.** 0.0147 E-score

Source: article PMC10668032
